From the supplement of paper PMC10338343
± gives the standard deviation. The list shows a part of the results, in another mix than the full data.
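Note: 1 nM active piRISC with 0.1 nM target library at 33 °C single turnover.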

These sequences were tested on MIWI (PIWIL1) piRISC loaded with piRNA #1 (30 nt) (assay: pre-steady-state target cleavage rate (min^-1); MIWI and MILI are mouse PIWI proteins and EfPiwi is from a freshwater sponge; tags in brackets are library labels; higher = faster piRNA-guided slicing of the target). Conditions: guide: piRNA #1 5'p-UGAGGUAGUAGGUUGUAUAGUAUCCAGAGG; auxiliary factor: 500 nM mouse GTSF1.
Summary of the method: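 At 33 °C in HEPES–potassium acetate buffer, a transcribed, DNA-blocked target RNA library […] was exposed for 0–8 or 0–960 min to 1 nM active affinity-purified piRISC carrying a single synthetic guide, with or without 500 nM GTSF1 partner protein. Uncleaved targets were sequenced and normalised to depth and to weakly complementary targets. With three trials pooled and k3 capped at 0.0001 min^-1, a burst-and-steady-state fit produced the pre-steady-state cleavage rate.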
With GGAGACGAUACUAUAUCAACCUACUACCUCA the “pre-steady-state target cleavage rate” value was 0.439 ± 0.058.
With GGAGACCUAUGAUUACAAGCAACUACCUCA the “pre-steady-state target cleavage rate” value was < 0.0001.
In the case of CCUCUGGAUACUUUACAACCUAGUACCUCA, the “pre-steady-state target cleavage rate” value is reported as 0.238 ± 0.035.
With GGUCUGGUUACUAUACAACGUACUACCUCA the “pre-steady-state target cleavage rate” value was 0.939 ± 0.054.
For GCUCUCGAUACUAUACAACCUAGUACCUCA, the “pre-steady-state target cleavage rate” value was 0.496 ± 0.057.
For GGUCUGGAUACUAUACAACCUACAUACCUCA, the “pre-steady-state target cleavage rate” value was 0.935 ± 0.071.
With GGAGACCUAUGUAUACAACCUAUUACCUCA the “pre-steady-state target cleavage rate” value was 0.0261 ± 0.005.
With GGAGUGGAUACUAUUCAACGUACUACCUCA the “pre-steady-state target cleavage rate” value was 0.553 ± 0.04.
CCUCUGUGAUACUAUACAACCUACUACCUCA was tested, and the “pre-steady-state target cleavage rate” value was 1.82 ± 0.092.
GGAGACGAUGACUAUACAACCUACUACCUCA was tested, and the “pre-steady-state target cleavage rate” value was 1.41 ± 0.14.
In the case of GGAGACCUAUCUAUACAAGCUAGUACCUCA, the “pre-steady-state target cleavage rate” value is reported as 0.193 ± 0.02.
With GGAGAGGAAACUAUACUACCUACUACCUCA the “pre-steady-state target cleavage rate” value was 1.09 ± 0.08.
In the case of GGUCUGGAUACUAUACAACCAACUACGUCA, the “pre-steady-state target cleavage rate” value is reported as 0.0761 ± 0.011.
With CCUCUGGAUACUAUACAACCAACUACGUCA the “pre-steady-state target cleavage rate” value was 0.125 ± 0.015.
In the case of GGAGAGGAUACUAAACAAGCUACUACCUCA, the “pre-steady-state target cleavage rate” value is reported as 0.494 ± 0.036.
In the case of GCUCUGGAUACUAUACUACCAACUACCUCA, the “pre-steady-state target cleavage rate” value is reported as 0.0275 ± 0.0065.
In the case of GGACUGGAGUACUAUACAACCUACUACCUCA, the “pre-steady-state target cleavage rate” value is reported as 1.42 ± 0.11.
In the case of GGAGACCUAUCUUUACAUCCUACUACCUCA, the “pre-steady-state target cleavage rate” value is reported as 0.0871 ± 0.016.
For GGAGACGAUACUAUACACCCUACUACCUCA, the “pre-steady-state target cleavage rate” value was 1.46 ± 0.069.
For GGAGACCUAACUAUACAAGGUACUACCUCA, the “pre-steady-state target cleavage rate” value was 0.0155 ± 0.0045.
GGAGUGGAUACUUUACAAGCUACUACCUCA was tested, and the “pre-steady-state target cleavage rate” value was 0.882 ± 0.051.
GCUCUGGAUACUAAACAACCUACUACGUCA was tested, and the “pre-steady-state target cleavage rate” value was 1.2 ± 0.073.
With GGAGAGGAUACUAUACAUGCUACUACCUCA the “pre-steady-state target cleavage rate” value was 0.486 ± 0.036.
CCUCUGGAUACUAUACAUCGUACUACCUCA was tested, and the “pre-steady-state target cleavage rate” value was 0.521 ± 0.043.
